Consider 45 molecules from publication PMC4336329 (PLoS ONE, 2015).

Among all 310,000 compounds or so, about 14,000 (4.5%) showed an effect of 50% or more. The effect is printed as a negative number. Some of the results follow.
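Further: peak tail current of the secondary pulse compared with the same well before compound.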

human ether-à-go-go-related gene (hERG) potassium channel, sequence (Q12809 whole entry, looked up): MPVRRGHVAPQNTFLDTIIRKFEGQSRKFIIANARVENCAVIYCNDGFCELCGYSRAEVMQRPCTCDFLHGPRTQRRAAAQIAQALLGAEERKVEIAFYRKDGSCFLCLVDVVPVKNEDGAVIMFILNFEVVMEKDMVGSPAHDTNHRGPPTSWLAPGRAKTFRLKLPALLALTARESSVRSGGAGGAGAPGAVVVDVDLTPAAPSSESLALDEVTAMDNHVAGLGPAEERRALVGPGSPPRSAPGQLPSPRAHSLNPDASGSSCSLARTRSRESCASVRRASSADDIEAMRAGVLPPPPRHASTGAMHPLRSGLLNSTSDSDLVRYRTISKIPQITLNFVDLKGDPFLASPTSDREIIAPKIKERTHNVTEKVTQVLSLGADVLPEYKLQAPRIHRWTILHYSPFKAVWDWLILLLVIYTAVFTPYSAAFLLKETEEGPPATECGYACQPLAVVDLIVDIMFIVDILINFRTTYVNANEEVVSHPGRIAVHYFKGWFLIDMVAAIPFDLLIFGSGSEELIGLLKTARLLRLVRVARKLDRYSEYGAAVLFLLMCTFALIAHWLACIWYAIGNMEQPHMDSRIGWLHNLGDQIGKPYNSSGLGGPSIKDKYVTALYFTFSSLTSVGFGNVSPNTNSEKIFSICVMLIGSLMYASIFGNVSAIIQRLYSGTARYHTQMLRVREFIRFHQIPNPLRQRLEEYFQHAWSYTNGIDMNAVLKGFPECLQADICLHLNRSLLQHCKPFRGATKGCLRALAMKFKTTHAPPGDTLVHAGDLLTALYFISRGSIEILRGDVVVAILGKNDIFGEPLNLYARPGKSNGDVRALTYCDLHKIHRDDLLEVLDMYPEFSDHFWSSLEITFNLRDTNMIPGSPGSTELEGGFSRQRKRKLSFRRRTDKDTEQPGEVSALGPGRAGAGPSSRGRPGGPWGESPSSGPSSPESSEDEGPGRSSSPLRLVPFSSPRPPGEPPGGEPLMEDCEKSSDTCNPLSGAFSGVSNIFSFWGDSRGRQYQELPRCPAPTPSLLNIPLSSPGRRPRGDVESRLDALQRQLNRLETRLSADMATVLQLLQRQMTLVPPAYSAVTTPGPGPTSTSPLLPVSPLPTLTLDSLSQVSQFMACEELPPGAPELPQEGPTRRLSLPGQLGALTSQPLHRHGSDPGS

In the test the target is human ether-à-go-go-related gene (hERG) potassium channel (human, UniProt Q12809). The test is described as follows: primary screen, population patch clamp on CHO cells stably expressing hERG. Here is the method:
Briefly, Chinese hamster ovary (CHO) cells stably expressing the hERG channel were dislodged from tissue culture flasks and dispensed into PPC plates. […] During the recording, background leak currents were estimated by a 100 ms step to -80 mV from an initial holding potential of -70 mV and subtracted from the subsequent current measurement. The campaign was conducted in two phases using slight differences in recording protocol. In the first phase, the initial voltage pulse used a 100 ms step to -30 mV from a holding potential of -70 mV, a 2 s conditioning step to +25 mV, and a 2 s test step to -30 mV. During the second phase of the screen, the potential during the conditioning step was raised to +45 mV. In both phases of the campaign, a secondary voltage pulse was applied using the same parameters as the second phase initial pulse. The initial and secondary pulses were applied in the absence of compound, and upon application of 1 μM and 10 μM test concentrations. […]
Consider `C[N+](C)(C)CCCN1C(=O)CCCC1=O.[I-]`, for which the “hERG current change (%, negative = inhibition) at 10uM” value is listed as 17.1%. For `CCN(CC)S(=O)(=O)c1cc(F)ccc1OC`, the “hERG current change (%, negative = inhibition) at 10uM” value is recorded as -10.8%.

On to `CCCC(=O)c1ccc(N2CCCCC2)c(F)c1`, for which the “hERG current change (%, negative = inhibition) at 10uM” value was 10.5%.

For `O=C1CC2(CCCCC2)Oc2ccc(Cl)cc21`, the “hERG current change (%, negative = inhibition) at 10uM” value is 1.26%.

Consider `Cc1ccccc1C(=O)c1cccn1CC(=O)NCC1CCCO1` (stereo not drawn), for which the “hERG current change (%, negative = inhibition) at 10uM” value came out at 4.58%. Take `Cc1cc(C)c2sc(N(CCN(C)C)C(=O)c3cc(Cl)sc3Cl)nc2c1.Cl`: the “hERG current change (%, negative = inhibition) at 10uM” value was 9.32%. As to `COc1ccc(CCNC(=O)CCn2c(=O)oc3ccccc32)cc1OC`, the “hERG current change (%, negative = inhibition) at 10uM” value is recorded as 6.52%. As to `O=C(NC1CCNCC1)C1CC1`, the “hERG current change (%, negative = inhibition) at 10uM” value came to 20.1%.

For the molecule `O=c1c2cc(-c3ccccc3)sc2nc2n1CCC2`, the “hERG current change (%, negative = inhibition) at 10uM” value is on record as 6.9%.

For `COP(=O)(CN(Cc1ccccc1)C(=S)Nc1c(C)cccc1C)OC`, the “hERG current change (%, negative = inhibition) at 10uM” value is 46.9%.

In the case of `CC(=O)Cn1c(=O)c2c(nc3n2CCCN3Cc2ccccc2)n(C)c1=O`, the “hERG current change (%, negative = inhibition) at 10uM” value was -7.99%. On to `Cc1ccc(C(C(=O)NC(C)(C)C)N(CC2CCCO2)C(=O)CCC(=O)Nc2ccccn2)cc1` (stereo not drawn), for which the “hERG current change (%, negative = inhibition) at 10uM” value is reported as 13.7%. For the molecule `CC(NC(=S)NC(=O)c1ccccc1)c1ccccc1` (stereo not drawn), the “hERG current change (%, negative = inhibition) at 10uM” value was -3.34%. `O=C(Nc1ccc([N+](=O)[O-])cc1)/C(=C/c1cccc([N+](=O)[O-])c1)NC(=O)C1CCCCC1`: the “hERG current change (%, negative = inhibition) at 10uM” value is listed as -69%.

Turning to `CCOc1ccc(C(=O)N/N=C(\c2ccccc2)c2ccccn2)cc1`, the “hERG current change (%, negative = inhibition) at 10uM” value is on record as -27%. Consider `CCOc1ccc(-c2nnn(CC(=O)NCc3ccccc3)n2)cc1`, for which the “hERG current change (%, negative = inhibition) at 10uM” value worked out at 24.4%. The figure for `O=C(NC(=S)Nc1ccc(Br)cn1)c1cccnc1` is 12.7%; for `Cl.O=C1CC[C@@]2(O)[C@H]3Cc4ccc(O)c5c4[C@@]2(CCN3CC2CC2)[C@H]1O5` it is 0.91%; for `CCn1c(CC(=O)Nc2ccc(F)cc2)nnc1SCC(=O)Nc1nnc(C)s1` it is 15.6%.

`COc1ccc(NC(=O)NC(C)(C(F)(F)F)C(F)(F)F)cc1`: the “hERG current change (%, negative = inhibition) at 10uM” value was determined as 9.59%.

Take `c1ccc(OCCOc2ncnc3sccc23)cc1`: the “hERG current change (%, negative = inhibition) at 10uM” value amounted to 3.89%.

As to `CCCc1cc(NCc2ccccn2)n2nc(C)c(-c3ccccc3)c2n1`, the “hERG current change (%, negative = inhibition) at 10uM” value came to 4.77%. The figure for `COC(=O)c1ccccc1NC(=O)N1CCN(C(=O)c2ccco2)CC1` is -25%; for `Cc1ccccc1NC(=O)C1CCN(S(=O)(=O)c2cccc3nonc23)CC1` it is 1.67%; for `COCCCn1c(SCC(=O)N2CCc3ccccc32)nnc1-c1ccoc1C` it is -14.9%.

`COC(=O)c1cc(F)c(-n2cncn2)c(F)c1`: the “hERG current change (%, negative = inhibition) at 10uM” value was -6.25%. Consider `CC(C)C(=O)Nc1ncc(C(F)(F)F)cc1Cl`, for which the “hERG current change (%, negative = inhibition) at 10uM” value came out at 23.1%. Take `CCN(CC(=O)Nc1ccc(OC)cc1)C(=O)c1ccc2c(c1)NC(=O)C(C)S2` (stereo not drawn): the “hERG current change (%, negative = inhibition) at 10uM” value is -10.5%.

Turning to `CCOC(=O)Cn1c(CN(Cc2ccccc2)Cc2ccccc2)nc2c1c(=O)n(C)c(=O)n2C`, the “hERG current change (%, negative = inhibition) at 10uM” value was -31.7%. For `O=C(CSc1n[nH]c(-c2cccs2)n1)N1CCN(S(=O)(=O)c2ccccc2)CC1`, the “hERG current change (%, negative = inhibition) at 10uM” value is 1.6%. For `O=C(CNC(=O)c1cccc(Cl)c1)NCC(c1cccs1)N1CCOCC1` (stereo not drawn) the value was -13.9%. Turning to `COC(=O)[C@@]12CCCCN1[C@H](c1ccc(-c3cc(C(C)=O)cs3)cc1)[C@H]1C(=O)N(C)C(=O)[C@H]12.O=C(O)C(F)(F)F`, the “hERG current change (%, negative = inhibition) at 10uM” value is on record as 9.06%. The figure for `CC(=O)N1CC=C2C(C#N)=C(N)C(C#N)(C#N)C(C)C2C1` (stereo not drawn) is 11.9%; for `CSc1ccccc1NC(=O)CN(C)C(=O)c1cccc(S(=O)(=O)N(C)C)c1` it is 8.78%. With `CCOC(=O)C(=CNCC(=O)OC)C(=O)OCC`, the “hERG current change (%, negative = inhibition) at 10uM” value is recorded as 10.7%.

As to `CSc1ccc(Cn2nnc(C(=O)NCc3ccccc3)c2N)cc1`, the “hERG current change (%, negative = inhibition) at 10uM” value is on record as -0.141%. As to `CS(=O)(=O)NC1c2cccc3cccc(c23)C1Sc1nncn1/N=C/c1ccco1` (stereo not drawn), the “hERG current change (%, negative = inhibition) at 10uM” value is listed as -21.1%. Turning to `CN(CCNC(=O)CCNC(=O)Cn1ccc2ccccc2c1=O)Cc1ccccc1`, the “hERG current change (%, negative = inhibition) at 10uM” value is on record as 0.657%. Regarding `CCC(=O)NC(=S)Nc1ccc(NC(=O)COc2ccccc2)cc1`, the “hERG current change (%, negative = inhibition) at 10uM” value is listed as 17.5%.

On to `C=CCn1c(=NC(=O)c2cccs2)sc2cc(NC(C)=O)ccc21`, for which the “hERG current change (%, negative = inhibition) at 10uM” value is 8.25%. The figure for `Cc1nn(CCC#N)c(NC(=O)c2ccc(Cl)cc2Cl)c1P(=O)(Nc1ccc([N+](=O)[O-])cc1)N1CCOCC1` (stereo not drawn) is -12.6%; for `O=C(O)Cc1ccc(Nc2cnn(C34CC5CC(CC(CC(=O)O)(C5)C3)C4)c(=O)c2Cl)cc1` it is 6.78%. For `O=C(/C=C/c1ccco1)Nc1ccc2c(c1)OCCO2`, the “hERG current change (%, negative = inhibition) at 10uM” value came out at 19.4%.

On to `CC(C)(C)C1(C)OC(=O)C(=Cc2ccc(OCC(=O)Nc3ccccc3)cc2)C(=O)O1` (stereo not drawn), for which the “hERG current change (%, negative = inhibition) at 10uM” value is given as -15.5%. On to `Cc1ccc(S(=O)(=O)N(C)C)cc1NS(=O)(=O)c1ccc(Cl)s1`, for which the “hERG current change (%, negative = inhibition) at 10uM” value is reported as 9.15%.
